# Measurements from PMC4336329 (PLoS ONE, 2015).
# About 2,200 (0.71%) of roughly 310,000 compounds showed an effect of 50% or more. Effects have a minus sign here. This is one part of the list.
# Target: human ether-à-go-go-related gene (hERG) potassium channel (human, UniProt Q12809)
# Assay: primary screen, population patch clamp on CHO cells stably expressing hERG
# Chain of human ether-à-go-go-related gene (hERG) potassium channel (Q12809 whole entry, looked up): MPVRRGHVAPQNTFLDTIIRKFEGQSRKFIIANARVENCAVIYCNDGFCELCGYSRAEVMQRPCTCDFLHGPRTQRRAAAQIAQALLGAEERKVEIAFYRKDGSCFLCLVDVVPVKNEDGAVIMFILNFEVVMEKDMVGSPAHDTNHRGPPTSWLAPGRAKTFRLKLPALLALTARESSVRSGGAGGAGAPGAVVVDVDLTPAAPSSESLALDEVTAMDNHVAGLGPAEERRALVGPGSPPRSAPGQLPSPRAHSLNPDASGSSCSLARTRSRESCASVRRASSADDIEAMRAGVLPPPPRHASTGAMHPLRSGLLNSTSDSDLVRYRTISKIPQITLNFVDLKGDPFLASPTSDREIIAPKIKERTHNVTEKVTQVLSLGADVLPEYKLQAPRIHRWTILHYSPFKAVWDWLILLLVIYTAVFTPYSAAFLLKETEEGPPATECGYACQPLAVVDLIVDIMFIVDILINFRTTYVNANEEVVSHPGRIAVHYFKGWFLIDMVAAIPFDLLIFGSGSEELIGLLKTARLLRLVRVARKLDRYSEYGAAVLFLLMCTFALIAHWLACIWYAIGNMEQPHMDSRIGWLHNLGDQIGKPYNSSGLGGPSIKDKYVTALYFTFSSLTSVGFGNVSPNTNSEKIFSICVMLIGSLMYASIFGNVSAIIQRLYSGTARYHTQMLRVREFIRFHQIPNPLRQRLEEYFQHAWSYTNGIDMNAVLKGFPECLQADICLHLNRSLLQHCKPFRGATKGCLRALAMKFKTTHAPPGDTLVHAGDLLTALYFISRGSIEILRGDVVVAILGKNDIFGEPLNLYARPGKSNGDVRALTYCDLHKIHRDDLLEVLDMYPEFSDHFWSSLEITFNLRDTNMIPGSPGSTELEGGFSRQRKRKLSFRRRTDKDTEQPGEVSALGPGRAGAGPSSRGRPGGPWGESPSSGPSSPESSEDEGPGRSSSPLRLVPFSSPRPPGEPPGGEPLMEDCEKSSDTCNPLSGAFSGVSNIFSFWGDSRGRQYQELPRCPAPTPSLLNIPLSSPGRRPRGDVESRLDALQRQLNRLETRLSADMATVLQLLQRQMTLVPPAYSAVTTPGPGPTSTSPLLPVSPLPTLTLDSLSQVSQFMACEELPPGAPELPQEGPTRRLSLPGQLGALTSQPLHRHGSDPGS
row,Structure (SMILES),"hERG current change (%, negative = inhibition) at 1uM [%]"
1,Cc1ccc(CNS(=O)(=O)c2ccc(C(C)(C)C)cc2)n1C,5.26
2,O=C1[C@H]2[C@@H](c3ccc(F)cc3)N3C(=O)N(c4cccc(F)c4)C(=O)[C@@]3(Cc3ccccc3)[C@H]2C(=O)N1C1CCCCC1,13.1
3,Cc1ccc(C(=O)NNC(=O)c2nn(-c3ccc(F)cc3)ccc2=O)cc1,-1.61
4,O=C(c1ccccc1F)N(Cc1cccs1)C1CCS(=O)(=O)C1 (stereo not drawn),20.6
5,O=C(NCCO)/C(=C\c1ccc(Br)cc1)NC(=O)c1cccs1,6.96
6,CN(CCOc1ccccc1)C(=O)CCc1c[nH]c2ccccc12.Cl,7.06
7,O=C(NCc1ccccc1)C1=C[C@H](c2csc3ccccc23)C[C@H](OCc2ccc(CO)cc2)O1,9.99
8,COC(=O)C1=C(c2ccc(F)cc2F)C[C@@H]2CC[C@H]1N2C(=O)N1CCCCC1,9.38
9,COc1ccc(N(CC(=O)N2CCCC2)S(=O)(=O)c2ccc(NC(C)=O)cc2)cc1,10.7
10,Oc1ccc(/C=N/Nc2ccc(Cl)nn2)cc1O,6.44
11,CCN1C(=O)[C@H]2[C@@H](c3ccc(C)cc3)N3C(=O)N(c4cccc(Cl)c4)C(=O)[C@@]3(Cc3ccc(Cl)cc3)[C@H]2C1=O,7.88
12,O=C(N[C@H](CO)Cc1ccccc1)c1ccco1,9.98
13,CCOc1ccc(S(=O)(=O)NCCC(=O)N2CCN(c3ncccn3)CC2)cc1,6.1
14,O=[N+]([O-])c1cnc(Nc2ccc(Cl)cn2)c([N+](=O)[O-])c1,10.2
15,CCOc1cc(/C=C2\CCC/C(=C\c3cc(Cl)c(O)c(OCC)c3)C2=O)cc(Cl)c1O,10
16,CCO[C@@H]1OC(C(N)=O)=C[C@H](c2ccc(C(F)(F)F)cc2)[C@H]1CCCO,9.38
17,COc1ccc(N2CCN(S(=O)(=O)c3c(C)nc4scc(C)n4c3=O)CC2)cc1,7.01
18,COC(=O)c1ccccc1N=Cc1c(O)[nH]c(=O)[nH]c1=O,5.64
19,C#CCOCCOCCOCCNc1nc(N2CCN(C(=O)Cn3cc(CCC[NH+]=C(N)N)nn3)CC2)nc(N2CCN(C(=O)[C@H](CCCC[NH3+])n3cc(CC(C)O)nn3)CC2)n1.[Cl-] (stereo partly drawn),22.6
20,CCOC(=O)C(Cc1ccccc1)C(=O)Nc1nccs1 (stereo not drawn),5.87
21,O=C(O)c1ccccc1NS(=O)(=O)c1ccc2ccccc2c1,19.4
22,Cc1cc(=O)oc2cc(OCC(=O)N3CCN(C(=O)C4COc5ccccc5O4)CC3)ccc12 (stereo not drawn),0.205

row,Structure (SMILES),"hERG current change (%, negative = inhibition) at 1uM [%]"
1,CCOc1ccc2nc(SCC(=O)NCc3ccc4c(c3)OCO4)[nH]c2c1,-7.38
2,O=C(COC(=O)c1ccc(S(=O)(=O)Nc2ccccc2)cc1)NCC1CCCO1 (stereo not drawn),8.89
3,CC(C)(C)N1CSC(=S)N(Cc2ccccc2)C1,9.11
4,CCOc1ccc(CCNC(=O)COC(=O)Cc2ccc(OC)c(OC)c2)cc1OCC,11.3
5,Cn1cncc1C#Cc1ccc2cc(C(C)(C)O)oc(=O)c2c1,15.6
6,Cc1ccc(C(=O)NC(C)c2ccccc2)cc1S(=O)(=O)N1CCOCC1 (stereo not drawn),0.385
7,Cc1cccc(C(C)C)c1NC(=O)COC(=O)COc1ccc2c(C)cc(=O)oc2c1,17.2
8,O=C(NCCCn1ccnc1)C(=O)NC1CCCCC1,4.36
9,CC1CCCN(c2c3c(nc4ccccc24)CCCC3)C1 (stereo not drawn),-12.7
10,COc1ccccc1N(CN1CCCC1=O)C(=O)c1c(F)cccc1Cl,2.96
11,CCOc1ccc2[nH]cc(S(=O)(=O)c3ccc(C)cc3)c(=O)c2c1,8.2
12,CCOc1cc(Br)c(COc2ccc(C)nc2[N+](=O)[O-])cc1OCC,17.9
13,Cc1ccccc1NC(=O)CC(C)S(=O)(=O)c1ccc2c(c1)NC(=O)CO2 (stereo not drawn),-5.76
14,Cc1ccc(O)c(C(=O)c2cc(C#N)c(=O)n(C(C)c3ccccc3)c2)c1 (stereo not drawn),7.69
15,COc1cccc(N=Nc2c(O)[nH]c(=S)[nH]c2=O)c1,9.36
16,COc1ccc(C(=O)NC2CC(C)(C)Cc3c2cnn3-c2ccccc2)c(OC)c1 (stereo not drawn),12.8
17,O=C(CCN1C(=O)c2ccccc2C1=O)C1=NN[C@@H]2C(=O)N(c3ccc4c(c3)OCCO4)C(=O)[C@H]12,7.8
18,O=C(O)/C=C/C(=O)NCCc1cccc(Cl)c1,6.17
19,CC(=O)NS(=O)(=O)c1ccc(NC(=O)/C=C/c2ccc(C)o2)cc1,11.8
20,CCCCn1c(SCC(=O)c2ccc3c(c2)NC(=O)CO3)nc2cc(S(N)(=O)=O)ccc21,14.4
21,CC1CCCC(N2C(=O)NC(NC(=O)c3ccco3)(C(F)(F)F)C2=O)C1C (stereo not drawn),7.8
22,O=C(O)c1ccc(COc2ccccc2[N+](=O)[O-])o1,13.1

row,Structure (SMILES),"hERG current change (%, negative = inhibition) at 1uM [%]"
1,COc1ccc(/C=C(\C#N)C(=O)OCC(=O)NC(=O)NCCC(C)C)cc1,7.16
2,Cn1cccc1/C=N/NC(=O)c1ccn[nH]1,8.24
3,Cc1cc2c(cc1C)N(Cc1ccc(Cl)cc1)C1=NCCCN12,-28.4
4,CS(=O)(=O)c1[nH]nc(-c2ccccc2)c1C#N,13.2
5,CCOc1ccc(C(=O)Nc2cccc(SC)c2)cc1,4.95
6,CC(=O)Oc1ccc2c(=O)c(Oc3ccccc3)coc2c1OC(C)=O,12.6
7,Cc1ccccc1NC(=S)NC(NC(=O)C(C)(C)C)C(Cl)(Cl)Cl (stereo not drawn),-14.3
8,Cc1ccc(N2CC(C(=O)NCCS(=O)(=O)N3CCN(c4ccc(F)cc4)CC3)CC2=O)cc1 (stereo not drawn),6.63
9,CCCCCCc1c(O)nc(SCCN2CCOCC2)[nH]c1=O.Cl,5.78
10,N#Cc1c(N)sc2c1CCCCCC2,2.12
11,CNC(=S)N/N=C/c1c(C)nn(-c2ccccc2)c1Cl,1.87
12,CC(C)N1CCN(S(=O)(=O)c2ccccc2)CC1.O=C(O)C(=O)O,9.1
13,Cc1ccc(NC(=O)c2ccc(C#CC3(O)CCCCC3)cc2)cc1C,6.93
14,COc1ccc(CN=C2NN=C(c3ccc(Cl)cc3)CS2)cc1,10.2
15,O=C(Nc1ccc2c(c1)OCO2)C(c1ccccc1)N1CCCCC1 (stereo not drawn),8.78
16,CCOc1ccc(C2c3[nH]c4ccccc4c3CCN2Cc2cccn2-c2ncccn2)cc1 (stereo not drawn),-12.3
17,COCCn1c(SCC(=O)NCCc2ccc(OC)c(OC)c2)nc2c([nH]c3ccccc32)c1=O,7.66
18,Cc1nc(NC(=S)NC(=O)c2cncc(Br)c2)ccc1Br,12.9
19,CCOc1cccc(/C=N/NC(=O)c2cccnc2)c1O,11.4
20,CCC1CC2CC(NC(C)=O)C1C2 (stereo not drawn),6.29
21,COc1ccc(CN2CN(C(C)C)CSC2=S)cc1,-3.08
22,O=C(NC1CCCCC1)Oc1ccccc1,16

row,Structure (SMILES),"hERG current change (%, negative = inhibition) at 1uM [%]"
1,CC1(C)Cc2c(c(N3CCOCC3)nc3snc(NC(=O)c4ccccc4)c23)CO1,-3.27
2,Cc1nn(C)cc1N1C(=O)c2cccc3c(N)ccc(c23)C1=O,14.4
3,Cc1ccsc1C(=O)NC1CCCCC1C (stereo not drawn),-1.48
4,Br.CC(C)(C)C(=O)Cn1c(=N)n(Cc2ccccc2Cl)c2ccccc21,-14
5,O=C(Nc1nnc(SCc2c(Cl)cccc2Cl)s1)c1ccc2ncsc2c1,7.63
6,Cc1ccc(Cn2c(N/N=C/c3ccncc3)nc3c2c(=O)n(C)c(=O)n3C)cc1,4.52
7,Cc1ccc(C)c(S(=O)(=O)N2CCN(C(=O)c3ccnn3C)CC2)c1,3.12
8,CSc1nnc2c3cc(F)ccc3n(Cc3ccccc3)c2n1,7.64
9,CSc1ccccc1NS(=O)(=O)c1cccc2nonc12,7.17
10,Cn1c(=O)c2cc(S(=O)(=O)Nc3ccc4c(c3)OCO4)ccc2n(C)c1=O,-0.528
11,Cc1ccc(-c2nc(N(C)C3CCN(C)CC3)c3ccccc3n2)cc1,10.1
12,OC(CNCc1ccccc1Cl)COc1ccc(F)cc1 (stereo not drawn),6.53
13,CC(C)(C)OC(=O)N[C@@H](Cc1ccccc1)c1nnc(SCC(N)=O)o1,3.15
14,C=C(C)COc1ccc2c3c(c(=O)oc2c1OCC(=C)C)CCC3,8.64
15,Cc1cc(C)c2nc(NC(=O)C3CCCO3)sc2c1 (stereo not drawn),1.43
16,O=C(Cn1c2[n+](c3ccc(C(F)(F)F)cc31)CCCCC2)Nc1ccccc1.[Cl-],10.3
17,Cc1cccc2cc(CN(CCCN3CCOCC3)Cc3nnnn3C(C)(C)C)c(=O)[nH]c12,2
18,Cc1nn(-c2ccccc2)nc1CNC(=O)C(C)Cc1ccccc1 (stereo not drawn),23.3
19,CCCc1nnc(NC(=O)COc2ccc3c(c2)OCO3)s1,14.2
20,N#CC12CNCC1CN=N2 (stereo not drawn),14.4
21,Cc1ccc(NS(=O)(=O)c2cc(C(=O)N3CCc4ccccc4C3)ccc2Cl)cc1,10.2
